Data: PubChem BioAssay (NCATS)
Several values for one entry are separate records, joined by “and”; a condition that tells them apart may be missing. Equal entries are not always repeated. Inconclusive means that the source gave no clear call. Such entries were picked first, then a sample of the others. For part of these data: Where the call is inconclusive, the potency comes from a doubtful curve fit. Activity calls are given as the source filed them. Unless noted, the call rests on the fitted dose curve; in most records, active means well fitted curve in the direction sought with a large enough effect; inconclusive means small, poorly fitted or top-dose-only effect, or another doubt; inactive means no such curve, though single readings can be large; an effect the other way counts as inactive or inconclusive.

How the values were obtained:
[1] = molecular target: Peptidyl-prolyl cis-trans isomerase NIMA-interacting 1 (Homo sapiens) (UniProt Q13526); experiment: qHTS Validation Assay to Find Inhibitors of Pin1 (AID 504536; active means well fitted inhibition curve with a large enough effect in the polarisation, with a control signal flat, not every such curve was filed as active; inconclusive means small, poorly fitted or top-dose-only effect, or effect the other way; the % refers to the polarisation; further: potency means the concentration at half of the fitted maximal effect)
UniProt Q13526, sequence (Q13526 whole entry, looked up): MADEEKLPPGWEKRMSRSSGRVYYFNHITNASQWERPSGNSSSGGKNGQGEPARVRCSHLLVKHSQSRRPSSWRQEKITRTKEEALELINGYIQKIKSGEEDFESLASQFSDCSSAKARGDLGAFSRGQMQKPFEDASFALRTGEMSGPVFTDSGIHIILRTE
Procedure, shortened: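 Fluorescence polarization competition: compounds (titration) displace HiFluor-488-labeled Pin1-1b peptide from Pin1 (0.3 uM final) in pH 7.5 HEPES buffer with DTT, 10 min at room temperature; %Activity normalized to no-enzyme wells, curves fitted.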

[2] = test system: Zika virus NS2B-NS3 protease; experiment: Primary screen GU AMC qHTS for Zika virus inhibitors (AID 1347154); further: potency means the concentration at half of the fitted maximal effect; nearly all actives have a fitted effect of over 70% in size
Procedure, shortened: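 Unlinked Zika NS2B hydrophilic domain/NS3 protease domain noncovalent complex (25 nM final) in 10 mM Tris-HCl pH 8.0, 0.01% Tween 20, with AMC peptide substrate. Fluorescence (ex 340, em 450 nm) change over 15 min, room temperature; percent inhibition fitted to 4-parameter Hill equation.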

[3] = Tertiary RLuc qRT-PCR qHTS assay for Zika virus inhibitors (AID 1347169); further: nearly all actives have a fitted effect of over 55% in size; further: potency means the concentration at half of the fitted maximal effect; on activity change, negative = inhibition: top concentration of the series differs between compounds; on the % scale 0 is the no-effect control and ±100 the full control effect
Procedure, shortened: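 Luminescence read-out: live-cell Renilla luciferase substrate applied to infected Vero cells, signal measured after 1-1.5 hrs. Cells had received compound before ZIKV-RLuc (Cambodian strain, MOI 1-2) infection and were incubated 48-72 hrs at 37 degrees C.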

[4] = Cytometry Cell-Based qHTS for Inhibitors of the mTORC1 Signaling Pathway in MEF cells (AID 2668); further: potency means the concentration at half of the fitted maximal effect;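 on activity change, negative = inhibition: Tsc2-/- p53-/- mouse embryonic fibroblasts stably re-expressing wild-type Tsc2; percent cells positive for phospho-rpS6 Ser235/236 relative to propidium iodide stain; plate controls were DMSO wells for no effect and 7.5 nM rapamycin control wells for full effect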
Procedure, shortened: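 Read-out: phospho-rpS6 Ser235/236 immunofluorescence normalized to propidium iodide intensity, scored as % active cells against a rapamycin (7.5 nM) threshold. Cells: Tsc2-/-, p53-/- MEFs stably expressing WT Tsc2, compound-treated 24 hrs at 37 degree Celsius.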

[5] = molecular target: D(1A) dopamine receptor (Homo sapiens) (UniProt P21728); experiment: HTS Assay for Allosteric Agonists of the Human D1 Dopamine Receptor: Primary Screen for Potentiators (AID 488982); further: potency means the concentration at half of the fitted maximal effect
UniProt P21728, sequence (P21728 whole entry, looked up): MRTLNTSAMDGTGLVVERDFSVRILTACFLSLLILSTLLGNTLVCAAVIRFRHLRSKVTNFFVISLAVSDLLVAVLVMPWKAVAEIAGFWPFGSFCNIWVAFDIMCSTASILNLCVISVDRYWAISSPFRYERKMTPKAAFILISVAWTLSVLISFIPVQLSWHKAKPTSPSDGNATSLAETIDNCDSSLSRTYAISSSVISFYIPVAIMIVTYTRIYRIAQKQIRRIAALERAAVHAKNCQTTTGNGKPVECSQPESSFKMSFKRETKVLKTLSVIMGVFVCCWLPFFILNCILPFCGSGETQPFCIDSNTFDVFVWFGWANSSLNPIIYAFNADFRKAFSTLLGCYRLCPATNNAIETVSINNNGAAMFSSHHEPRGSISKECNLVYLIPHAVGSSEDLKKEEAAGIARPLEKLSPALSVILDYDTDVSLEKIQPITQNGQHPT
Procedure, shortened: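 Tetracycline-induced HEK293 T-REx cells force-coupled to calcium signalling were incubated overnight at 30 C and dye-loaded at room temperature. Calcium flux over 180 s after compound addition flagged agonists; a further 180 s read after EC20 dopamine flagged potentiators.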

[6] = molecular target: D(1A) dopamine receptor (Homo sapiens) (UniProt P21728); experiment: HTS Assay for Allosteric Agonists of the Human D1 Dopamine Receptor: Primary Screen for Antagonists (AID 488983); details: D1 receptor cell assay, antagonist mode, qHTS titration; activity change, negative = inhibition: at 41.8 µM (top of the series);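 further: calcium flux response to an EC80 dopamine challenge measured with no-wash dye; nearly all actives have a fitted effect of over 65% in size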; further: potency means the concentration at half of the fitted maximal effect; on activity change, negative = inhibition: on the % scale 0 is the no-effect control and ±100 the full control effect
Procedure, shortened: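 Kinetic fluorescence at 1 cycle/sec tracked intracellular calcium in force-coupled, tetracycline-inducible HEK293 T-REx D1 cells. Loss of response to an EC80 dopamine dose, given 180 s after compound, marked antagonists.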

[7] = qHTS Assay for Modulators of Human Peripheral Myelin Protein 22 (PMP22) Expression/Activity (AID 1967; active means well fitted curve in the direction sought with a large enough effect in the signal ratio; inconclusive means small, poorly fitted or top-dose-only effect, or effect the other way, or a change in a side signal; inactive means no such curve, though single readings can be large or run the other way; the % refers to the signal ratio; further: potency means the concentration at half of the fitted maximal effect;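 on activity change (ratio): 0% = untreated cells and 100% end not stated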); details: Cell-based PMP22 reporter, dual-color luciferase ratio, mouse Pmp22 promoter in mouse Schwann cells; activity change (ratio): at 115 µM (top of the series), 0% = compound-free control cells
Procedure, shortened: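 Mouse MSC80 Schwann line, Pmp22 promoter–CBG68 reporter, EF-alpha–CBR internal control. 24h compound exposure, 37 °C/5% CO2, DMEM + 10% FBS. Readout: corrected green/red luminescence ratio, normalized to untreated cells; concentration-response curves fitted and classified.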

[8] = qHTS for differential inhibitors of proliferation of Plasmodium falciparum line Dd2 (AID 1882); details: Potency: Plasmodium falciparum Dd2 proliferation inhibition; further: nearly all actives have a fitted effect of over 65% in size; further: potency means the concentration at half of the fitted maximal effect;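 on activity change, negative = inhibition: plate controls were DMSO vehicle for no effect and 0.29 µM artemisinin for full effect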
Procedure, shortened: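 SYBR Green DNA fluorescence (ex 485, em 535 nm) after overnight lysis quantifies parasite growth; compound exposure lasted 72 h at 37 C on infected red cells at 2.5% hematocrit, 0.3% parasitemia (final). Artemisinin 0.29 uM and vehicle wells define normalization.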

[9] = Nrf2 qHTS screen for inhibitors: Validation (AID 493153; active means well fitted inhibition curve with a large enough effect in the main read-out, with a control signal flat, not every such curve was filed as active; inconclusive means small, poorly fitted or top-dose-only effect, or effect the other way, or a change in a side signal; inactive means no such curve, though single readings can be large or run the other way; further: potency means the concentration at half of the fitted maximal effect;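 on activity change, negative = inhibition: A549 cells with ARE-driven firefly luciferase reporter reporting Nrf2 activity; % of control where 0% means no effect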)
Procedure, shortened: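 A549 ARE_Fluc, 5% FBS OPTI-MEM; cpd titration, 18-24 h, 37°C/5% CO2. Read 1: CellTiter-Fluor (Ex 405/Em 525), cytotox. Read 2: luciferase lum, Nrf2 activity.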

[10] = test system: Zika virus NS2B-NS3 protease (unlinked); experiment: Optimization of GU AMC qHTS for Zika virus inhibitors: Unlinked NS2B-NS3 protease assay (AID 1347151); further: potency means the concentration at half of the fitted maximal effect; nearly all actives have a fitted effect of over 80% in size
Procedure, shortened: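 Fluorescence read-out (340 nm ex / 450 nm em) of AMC peptide cleavage, taken immediately and after 15 min at room temperature (~20% conversion). Enzyme was the unlinked NS2B–NS3 complex at 25 nM in Tris pH 8.0 buffer.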

[11] = molecular target: 3',5'-cyclic-AMP phosphodiesterase 4B (Homo sapiens) (UniProt Q07343); experiment: qHTS Assay for Inhibitors of PDE-IV (AID 607; active means well fitted activation curve with a large enough effect in the main read-out, with a control signal flat, not every such curve was filed as active; inconclusive means small, poorly fitted or top-dose-only effect, or effect the other way, or a change in a side signal; further: potency means the concentration at half of the fitted maximal effect; on activation (PDE inhibition): % of control where 0% means no effect); details: HEK293 ACTOne CNG channel cells, membrane potential fluorescence; activation (PDE inhibition): at 22.9 µM (top of the series)
UniProt Q07343, sequence (Q07343 whole entry, looked up): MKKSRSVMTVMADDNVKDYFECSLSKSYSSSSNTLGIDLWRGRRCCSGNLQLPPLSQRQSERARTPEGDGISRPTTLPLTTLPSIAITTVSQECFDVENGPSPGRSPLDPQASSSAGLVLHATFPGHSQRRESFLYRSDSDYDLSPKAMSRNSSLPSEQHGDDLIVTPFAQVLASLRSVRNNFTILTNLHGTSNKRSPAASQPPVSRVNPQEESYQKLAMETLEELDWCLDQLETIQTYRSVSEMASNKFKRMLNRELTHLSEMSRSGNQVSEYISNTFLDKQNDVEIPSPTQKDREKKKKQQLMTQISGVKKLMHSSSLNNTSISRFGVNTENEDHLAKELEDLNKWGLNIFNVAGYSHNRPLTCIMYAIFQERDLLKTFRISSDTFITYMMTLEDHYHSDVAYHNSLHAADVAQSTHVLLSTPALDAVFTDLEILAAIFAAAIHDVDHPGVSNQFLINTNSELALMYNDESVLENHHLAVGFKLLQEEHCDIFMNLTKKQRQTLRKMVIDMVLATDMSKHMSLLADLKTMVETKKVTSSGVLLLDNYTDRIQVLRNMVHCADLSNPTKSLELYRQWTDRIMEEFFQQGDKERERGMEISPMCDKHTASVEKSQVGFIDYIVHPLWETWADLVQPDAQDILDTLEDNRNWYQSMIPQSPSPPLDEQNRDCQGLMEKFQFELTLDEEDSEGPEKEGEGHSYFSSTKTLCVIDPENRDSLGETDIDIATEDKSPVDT
Procedure, shortened: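 ACTOne HEK293 cells carry a modified cAMP-gated CNG channel and express endogenous PDE4; plated 1000 cells/well, compounds up to 22.9 uM final. Membrane-potential dye fluorescence (ex 535/em 590) was read; parental cells received 10 uM forskolin + 100 uM RO 20-1724.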

[12] = molecular target: Tyrosine-protein phosphatase non-receptor type substrate 1 (Homo sapiens) + Leukocyte surface antigen CD47 (Homo sapiens) (UniProt P78324+Q08722); experiment: CD47-SIRPalpha protein protein interaction - Alpha assay qHTS validation (AID 1347059);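 further: bead proximity luminescence from CD47 binding SIRPalpha after compound preincubation with SIRPalpha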; further: potency means the concentration at half of the fitted maximal effect; on activity change, negative = inhibition: on the % scale 0 is the no-effect control and ±100 the full control effect
UniProt P78324, sequence (P78324 whole entry, looked up, the tested form may be a part): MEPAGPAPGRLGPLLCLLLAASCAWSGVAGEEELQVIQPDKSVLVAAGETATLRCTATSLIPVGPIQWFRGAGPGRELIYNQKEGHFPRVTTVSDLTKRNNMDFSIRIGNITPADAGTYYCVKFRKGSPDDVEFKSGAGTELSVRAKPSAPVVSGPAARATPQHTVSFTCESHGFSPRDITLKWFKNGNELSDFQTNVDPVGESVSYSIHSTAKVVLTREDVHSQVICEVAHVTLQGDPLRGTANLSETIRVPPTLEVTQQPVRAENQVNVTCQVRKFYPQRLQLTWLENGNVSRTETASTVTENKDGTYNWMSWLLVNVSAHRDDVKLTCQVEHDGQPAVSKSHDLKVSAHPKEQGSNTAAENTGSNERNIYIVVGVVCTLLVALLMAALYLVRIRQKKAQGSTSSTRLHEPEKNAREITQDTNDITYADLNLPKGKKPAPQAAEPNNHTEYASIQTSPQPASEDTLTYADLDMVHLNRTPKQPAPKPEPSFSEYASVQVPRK
UniProt P78324, sequence (Q08722 whole entry, looked up, the tested form may be a part): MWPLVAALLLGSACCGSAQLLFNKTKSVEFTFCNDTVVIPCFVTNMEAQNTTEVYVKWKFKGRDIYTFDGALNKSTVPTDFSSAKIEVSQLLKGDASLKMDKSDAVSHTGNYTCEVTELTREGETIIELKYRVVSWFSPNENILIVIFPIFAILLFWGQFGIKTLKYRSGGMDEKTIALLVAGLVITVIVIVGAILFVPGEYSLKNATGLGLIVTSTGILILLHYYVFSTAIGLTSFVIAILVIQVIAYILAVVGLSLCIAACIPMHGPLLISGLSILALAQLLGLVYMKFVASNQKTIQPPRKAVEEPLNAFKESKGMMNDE
Procedure, shortened: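 In PBS (pH 7.4) with 0.05% IGEPAL CA-630, compound is preincubated with biotin-Avi-SIRPalpha ectodomain before His-CD47 ectodomain and affinity beads are added. Light-protected room-temperature incubations; AlphaScreen readout.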

[13] = High Content Imaging Cell-Based qHTS for Inhibitors of the mTORC1 Signaling Pathway in MEF Cells (AID 2667); further: potency means the concentration at half of the fitted maximal effect
Procedure, shortened: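 Fixed-cell imaging of phospho-S6 (Ser235/236, Alexa-488) after 24 hrs of compound treatment at 37 degree Celsius. Signal was normalized to Hoechst, and thresholds from the highest and lowest wells split cells into % active versus % non-active.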

[14] = qHTS Validation Assay to Find Inhibitors of Chronic Active B-Cell Receptor Signaling (AID 485345; active means well fitted curve in the direction sought with a large enough effect in the main read-out, with a control signal flat, not every such curve was filed as active; inconclusive means small, poorly fitted or top-dose-only effect, or effect the other way, or a change in a side signal; inactive means no such curve, though single readings can be large or run the other way;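 further: 0% = untreated basal cells and 100% = 10 µM MG-132 proteasome inhibitor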); details: ABC-DLBCL cells, chronic BCR signaling reporter; activity change: CBG luciferase, at 46.1 µM (top of the series)
Procedure, shortened: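 TMD8 ABC-DLBCL cells with dox-inducible green luciferase–IκBα fusion and red native luciferase; compounds 46 uM–3 nM, 4 h at 37C with doxycycline in 0.5% FBS IMDM. Green/red ratio normalized to basal and 10 uM MG-132.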
Tags describe the fitted curve by direction and shape or compound fluorescence and quenching.

SMILES: Cc1nc(N=Nc2ccc(S(=O)(=O)O)cc2S(=O)(=O)O)c(COP(=O)(O)O)c(C=O)c1O
- Potency [1]: inconclusive: 30.1 µM [falling, single point]
- Potency [2]: inconclusive: 23.8 µM [inhibitor, single point]
- activity change, negative = inhibition [3]: inactive: 33.6% [at 5.25 µM]

SMILES: c1ccc(C(NCc2cccnc2)(c2ccccc2)c2ccccc2)cc1
- Potency [4]: inactive
- Potency [5]: active: 4.11 µM
- Potency [6]: inconclusive: 5.62 µM [activator, partial curve]

SMILES: C[C@H](O)C(=O)C1=Nc2c(nc(N)[nH]c2=O)NC1
- Potency [6]: inactive

SMILES: O=[N+]([O-])c1cccc2cn[nH]c12
- Potency [7]: inactive

SMILES: COc1ccc(/C=C/c2nc(NCCCN(C)C)c3ccccc3n2)cc1
- Potency [3]: inconclusive: 26.1 µM [inhibitor, single point]

SMILES: CCCn1c(=O)c2c(ncn2C)n(CCC)c1=O
- Potency [5]: inconclusive: 1.46 µM [activator, single point]

SMILES: C=CC1(C)CC(=O)C2(O)C(C)(O1)C(OC(C)=O)C(O)C1C(C)(C)CCC(O)C12C (configuration not stated)
- Potency [8]: inactive

SMILES: CN1CCC2(CCN3CCc4c(oc5ccccc45)C3C2)N(C)C1=O (configuration not stated)
- Potency [9]: inconclusive: 16.4 µM [falling, partial curve]
- Potency [10]: inconclusive: 26.7 µM [inhibitor, single point]

SMILES: CC(C)C[C@H](NC(=O)[C@H](O)[C@H](N)Cc1ccccc1)C(=O)O
- Potency [7]: inconclusive: 95.3 µM [cytotoxic, single point]
- Potency [9]: inactive

SMILES: Nc1nc2ccc(Cl)cc2c2nc(-c3ccco3)nn12
- Potency [11]: inconclusive: 600 nM [activator, partial curve, poor fit]
- Potency [12]: inconclusive: 5.21 µM [inhibitor, full curve]
- Potency [3]: inconclusive: 8.27 µM [inhibitor, full curve]

SMILES: NC(N)=NCCCCN=C(N)N
- Potency [11]: inactive and inconclusive: 19 µM [inhibitor, single point]

SMILES: CC1CNCCN1S(=O)(=O)c1cccc2cnccc12 (configuration not stated)
- Potency [8]: inconclusive: 7.94 µM [inhibitor, partial curve]
- Potency [13]: inconclusive: 23.3 µM [falling, single point]
- Potency [4]: inconclusive: 10.4 µM [falling, partial curve]
- activity change [14]: inconclusive: 44.9%
- Potency [6]: inactive
- Potency [9]: inconclusive: 16.4 µM [falling, partial curve]

SMILES: CC(C)NC[C@H](O)COc1ccc(CC(N)=O)cc1
- Potency [11]: inconclusive: 19 µM [inhibitor, single point] and inconclusive: 15.1 µM [activator, single point]
- Potency [12]: inactive
